According to ChEMBL document CHEMBL4888484, “Replenishing the malaria drug discovery pipeline: Screening and hit evaluation of the MMV Hit Generation Library 1 (HGL1) against asexual blood stage Plasmodium falciparum ,using a nano luciferase reporter read-out” (2022):
Out of some 150,000 compounds screened, about 540 (0.36%) showed an effect of 50% or more. The list shows a part of the results.

test system: Plasmodium falciparum; assay: Primary screen in NF54 nanoGlo assay, in single point, at 2uM, 72h; a lower Z score goes with more inhibition; assay type: functional, Erythrocyte; conditions: timepoint 72 hour

SMILES | % Inhibition | Z score
O=C(NCCn1cc(-c2ccncc2)cn1)C1CCCCC1 | 7% | -0.94
CCOc1ccc(C(=O)N2CCCCC2)cc1N[C@H]1CCN(C(C)C)C1=O | 8% | -1.04
COCCN(C)S(=O)(=O)c1cc2c(cc1N1CCCCCC1)Oc1ccccc1NC2=O | -10% | 1.46
COc1ccc(S(=O)(=O)N2CCN3C(=O)N(C4CCOCC4)C[C@H]3C2)cc1 | -2% | 0.26
COc1cc(C(=O)N(CCO)Cc2ccsc2)on1 | 11% | -1.54
Cc1nc2cc(NC(=O)c3ccc(=O)[nH]n3)ccc2o1 | -9% | 1.73
O=c1c2nccnc2ncn1Cc1ccc2c(c1)CCCO2 | -10% | 1.68
CCN(C(=O)CN1C(=O)COc2cc(Cl)ccc21)c1cccc(C)c1 | -4% | 0.59
O=C(O)C1CCCC(C(=O)N2Cc3ccccc3C2)C1 (stereo not given) | -17% | 2.38
COc1ccc(C[C@H]2CCOC3(CCN(C(=O)c4cccc(C)c4)CC3)C2)cc1 | -10% | 1.28
CCn1ccnc1[C@H]1OCCC[C@@H]1c1nc(-c2nnc(-c3ccccc3)o2)no1 | -2% | 0.25
CC(C)Cc1ncc(-c2nc([C@H]3CN4CCC[C@H]4CO3)no2)s1 | -6% | 0.73
CC(=O)N1CCCN(CCC(=O)Nc2sccc2C#N)CC1 | 2% | -0.41
CNCC#CCOc1c(C)ccc(C)c1C | 9% | -0.99
C=Cn1cc(CN2CC[C@H](CNC(=O)NC3CCCC3)C2)cn1 | -12% | 2.31
CN(C)C(=O)[C@@]12CCCC[C@H]1N(CCc1ccccc1)C(=O)CC2 | -3% | 0.31
O=C(Nc1c(O)[nH]c2ccccc2c1=O)c1ccccc1Br | -2% | 0.3
C[C@H]1CN(CCn2ccnc2)CCC1(F)F | 7% | -0.91
CC1(C)CN(C(=O)C[C@H]2CCCO2)Cc2cn[nH]c21 | -12% | 2.2
CCS(=O)(=O)N1CCCC(C(=O)N2c3ccccc3CC2C)C1 (stereo not given) | -3% | 0.45
N=C1C2=C3C=CC=C3C=C2CN1c1cccc2ccccc12 | 0% | -0.08
Cc1cccc2nc(-c3nc(C4CCCC4)nn3CCO)cn12 | -8% | 1.51

SMILES | % Inhibition | Z score
O=C(c1ccccc1Cl)N1CCC[C@H](OCc2ccc(Br)cc2)C1 | -1% | 0.18
C[C@](O)(CNc1ccc(C#N)cc1F)c1cccs1 | -1% | 0.11
COc1cccc([C@H]2CN(CC(N)=O)C[C@@H]2NC(=O)COC(C)C)c1 | -12% | 1.88
C[C@@H](C(=O)N1CCC2(CC1)NCCNC2=O)c1ccc(-c2ccccc2)c(F)c1 | 0% | -0.04
C[C@H]1CN(C(=O)c2cccc3c2OCO3)CCN1 | -4% | 0.43
CN(Cc1cccnc1)c1ncc(C(C)(C)C(=O)O)c(N2CCOCC2)n1 | -5% | 0.91
Cc1c(-c2cccs2)nc2ccc(Cl)cc2c1-c1ccccc1 | -12% | 2.31
CCN(CC)S(=O)(=O)c1ccc(C(=O)Nc2cc(C)nn2-c2nc3c(c(=O)[nH]2)CCC3)cc1 | 2% | -0.2
Cc1noc(C)c1CCC(=O)N1CCN(c2ccnc3nncn23)CC1 | -4% | 0.63
COCCN(Cc1c(-c2ccccc2)nn(C)c1Oc1ccccc1OC)C(=O)NC(C)C | -15% | 1.34
CCc1nnc(NCC(C)(C)CCS(C)(=O)=O)c(C#N)c1CC | 2% | -0.31
CN(Cc1ccccc1)C(=O)c1cc(NC(=O)c2ccc3c(c2)OCO3)ccc1N1CCCN(C(=O)C2CCCC2)CC1 | 1% | -0.18
Cc1ocnc1C(=O)NCC1(CN2CCN(C)CC2)CC1 | 1% | -0.14
Cc1noc(C[C@H]2CCCN(Cc3cnns3)C2)n1 | 3% | -0.34
Cc1ccccc1CNC(=O)CN1CCN(C(=O)Nc2ccc(Br)cc2)CC1=O | -12% | 1.51
COc1ccc([C@@H](NCc2nnc(C(C)C)[nH]2)C2CC2)c(F)c1 | -2% | 0.29
C=CCCCN1[C@@H](CO)CCS1(=O)=O | 22% | -2.78
O=C(CCCC1CCOCC1)Nc1cccc(F)c1-c1nc[nH]n1 | -15% | 1.52
Cc1ccc(-c2ccc(C(=O)N(CCO)Cc3nccs3)cc2)c(C)n1 | -6% | 0.87
Cc1ccccc1NC(=O)Cc1nc(C)c(-c2ccccc2)s1 | 1% | -0.09
Cc1nn(C)c(C)c1C(=O)N1CCOC2(CC3CCC2C3)C1 (stereo not given) | -11% | 1.05
CC[C@@H](CO)NCc1ccc(OC(C)C)cc1 | -13% | 1.71

SMILES | % Inhibition | Z score
CNc1snc(C)c1C(=O)N1CCN(c2ccccc2OC)CC1 | -8% | 1.4
CNC(=O)NC1CCN(C(=O)[C@]2(C)CCOc3ccccc32)CC1 | 7% | -1.13
Cc1ccc(C2CCN(C(=O)Nc3cnc4c(c3)CC(N)CC4)C2)c(C)c1 (stereo not given) | 1% | -0.12
Cc1ccc(C)c(CN(Cc2nc(C(=O)NCc3ccco3)co2)[C@@H](C)c2ccccc2)c1 | -18% | 3.44
CCc1ccccc1N1C(=O)C2C(O)CCCN2C1=O (stereo not given) | -3% | 0.44
Cc1cnc(C2CC2)n1CCNC(=O)CC(C)C | -1% | 0.25
O=C(NCCC1=CCCCC1)c1coc(CN2CCN(Cc3ccccc3)CC2)n1 | -7% | 0.96
O=C(Cc1ncccc1F)N1CCCS(=O)(=O)C[C@H]1C1CC1 | -9% | 1.91
CC(C)Cn1cncc1CNC(=O)CN1CCN(C)C1=O | -21% | 1.84
O=C(N[C@@H]1CN(Cc2ccc(CO)o2)CCC[C@H]1O)c1ccc(OCc2ccccc2)cc1 | 26% | -2.94
O=C(NCc1ccc(-n2cnc3ccccc32)cc1Cl)[C@H]1CCOC1 | 31% | -3.5
O=C(NC[C@H](c1ccc(F)cc1)c1c[nH]c2ccccc12)Nc1ccc(Cl)cc1 | -7% | 1.23
CCCCNC(=O)c1c(-c2ccc(Cl)cc2)c2cc(CC)ccc2n1C | -2% | 0.24
COc1cccc2c1NC(=O)C[C@H]2C(=O)NCc1ccc2c(c1)CCCC2 | -11% | 2.18
COC(C)(C)CNC(=O)Cc1cc(C)[nH]n1 | 2% | -0.26
CCOC(=O)c1cc(-c2cccc(NC(=O)c3ccc4nonc4c3)c2)n(-c2ccccc2F)n1 | -7% | 1.01
CC(C)(C)OC(=O)N[C@](C)(CO)Cc1ccccc1 | -12% | 1.67
O=C(c1ccsc1)N1CCC[C@H]1c1n[nH]c2c1COCC2 | -8% | 0.75
NC(=O)COCC(=O)N1C[C@@H]2CC[C@@H](C2)C1 | -3% | 0.47
COc1cc(CS(=O)(=O)Cc2scnc2C)ccc1Cl | 2% | -0.24
O=C(CCn1cncn1)NCC1(c2cccc(Br)c2)CCC1 | -4% | 0.55
CC1(C)CCCN1C(=O)c1cccc(S(=O)(=O)N2CCCc3ccccc32)c1 | 1% | -0.07

SMILES | % Inhibition | Z score
CC[C@@H](CNS(C)(=O)=O)Nc1ncc(F)c(-c2ccsc2)n1 | -4% | 0.65
O=C(Nc1ccc(F)cc1)N1C[C@H]2CC[C@@H](C1)N(Cc1ccccn1)C2=O | -11% | 2.17
CCC(=O)N1CCC[C@H](Oc2ncc(Cl)cn2)C1 | 1% | -0.17
Cc1ccc(Cl)cc1-n1ncc2c(Nc3ccc4c(c3)OCO4)ncnc21 | 2% | -0.24
O=C(O)c1ccccc1OCCN1CC[C@@H](C(F)(F)F)C2(CCOCC2)C1 | -7% | 1.11
COc1cccc(CN2CCC[C@@](O)(CN3CCS(=O)(=O)CC3)C2=O)c1 | -1% | 0.1
CCC(C)N(CCNC(=O)C1CCCN(c2nc3c(C)cc(C)cc3s2)C1)C1CCCCC1 (stereo not given) | 10% | -1.32
CC1(C)CN(S(=O)(=O)c2ccccc2)C[C@@H]2CN(C(=O)c3ccccc3F)CCN21 | 29% | -3.29
O=C(CCNC(=O)C1CCCCC1)Nc1ccccc1 | -2% | 0.41
CCCc1nc(C)c(CNC(=O)C2(N3CCOCC3)CCCCC2)s1 | -15% | 1.45
O=C(NCC1CC1)C(=O)Nc1ccc2c(c1)C(=O)N(CC1CC1)C2=O | -11% | 0.96
C[C@@H](CN1CCCC1=O)NC(=O)Nc1ccc(F)c(NC(=O)C2CCCCC2)c1 | 3% | -0.52
Cc1csc(-c2csc(Nc3cnccc3C)n2)c1 | 1% | -0.16
Cc1nnc(C(=O)Nc2ccc(C(=O)NCc3ccccn3)cc2)s1 | -1% | 0.13
Cc1nnsc1CNC(=O)c1c[nH]nc1-n1cnnn1 | 6% | -0.8
COc1ccccc1C(=O)Nc1ccc2c(c1)N(C(=O)c1ccccc1)CCC2 | -9% | 0.89
O=C(NCCCc1ccccc1)c1coc(CN2CCN(c3ncccn3)CC2)n1 | -19% | 3.53
O=C(O)[C@H]1CC[C@H](C(=O)Nc2ccsc2)CC1 | -5% | 1
Cc1c(NC(=O)Nc2ccc(N3CC(C)OC(C)C3)cc2)cnn1CCO (stereo not given) | -10% | 0.99
